Test results: the supplement of paper PMC10670038
Where a name gives a salt, the structure may show the parent alone. ± gives the standard deviation of the averaged measurements. The full ranking holds about 2,000 compounds; the median of “relative cell viability vs DMSO, compound alone” is about 1.1, and the lowest 2% start at about 0.29. Some of the results follow.

What follows are compounds tested on TE10 (assay: relative cell viability vs DMSO, compound alone (fraction); TE10 is an esophageal squamous carcinoma line; higher = less cytotoxic). Settings: 2 µM; 48 h.
Protocol: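 TE10 ESCC cells (1,000/well, 384-well plates) were treated with Selleck bioactive library compounds at 2 uM alone for 48 h. Viability was read by CellTiter-Glo and expressed relative to DMSO wells. Two technical replicates (A, B).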

Question: How did the relative cell viability turn out when Nc1nccs1 [Aminothiazole] was run?
Answer: Its relative cell viability is 1.05 ± 0.022.

Question: For NC(=O)c1cccnc1 [Nicotinamide (Vitamin B3)], which relative cell viability is on record?
Answer: The relative cell viability was 0.903 ± 0.037.

Question: With CCCc1nc(C(C)(C)O)c(C(=O)OCc2oc(=O)oc2C)n1Cc1ccc(-c2ccccc2-c2nnn[nH]2)cc1 [Olmesartan Medoxomil] as the compound, how does the relative cell viability read?
Answer: Its relative cell viability is 1.16 ± 0.046.

Question: Which relative cell viability does the source give for Cn1c(=O)c2c(ncn2CC(O)CO)n(C)c1=O (configuration not stated) [Dyphylline] here?
Answer: The relative cell viability was 1.18 ± 0.066.

Question: For Cc1c(Cn2c(C)nc3c(C(=O)O)cc(N4CCOCC4)cc32)cccc1C(F)(F)F, which relative cell viability is on record?
Answer: Its relative cell viability is 0.978 ± 0.063.

Question: Which relative cell viability does the source give for O=C(NCc1ccc(Oc2ccccc2)cc1)c1nc(-c2cc(Br)c(O)c(Br)c2)no1 here?
Answer: The relative cell viability was 1.17 ± 0.012.

Question: CCCCCCCCCCCCCCCC[N+](C)(C)C [Cetrimonium Bromide (CTAB)] was tested. Which relative cell viability did it give?
Answer: Its relative cell viability is 1.05 ± 0.039.

Question: How did the relative cell viability turn out when NC(=O)NO [Hydroxyurea] was run?
Answer: Its relative cell viability is 1.11 ± 0.043.

Question: For Clc1ccccc1C(c1ccccc1)(c1ccccc1)n1ccnc1 [Clotrimazole], which relative cell viability is on record?
Answer: Its relative cell viability is 1.14 ± 0.027.

Question: With Cc1cc(N2CCOCC2)cc2[nH]c(-c3c(NCC(O)c4cccc(Cl)c4)cc[nH]c3=O)nc12 (configuration not stated) as the compound, how does the relative cell viability read?
Answer: Its relative cell viability is 0.881 ± 0.054.

Question: How did the relative cell viability turn out when Clc1ccc(COC(Cn2ccnc2)c2ccc(Cl)cc2Cl)cc1 (configuration not stated) [Econazole nitrate] was run?
Answer: Its relative cell viability is 0.891 ± 0.04.

Question: For CO[C@H]1C(=O)[C@]2(C)[C@@H](OC)C[C@H]3OC[C@@]3(OC(C)=O)[C@H]2[C@H](OC(=O)c2ccccc2)[C@]2(O)C[C@H](OC(=O)[C@H](O)[C@@H](NC(=O)OC(C)(C)C)c3ccccc3)C(C)=C1C2(C)C [Cabazitaxel], which relative cell viability is on record?
Answer: Its relative cell viability is 0.669 ± 0.013.

Question: With O=S(=O)(O)CCSSCCS(=O)(=O)O [Dimesna] as the compound, how does the relative cell viability read?
Answer: Its relative cell viability is 1.22 ± 0.12.

Question: For O=C(Nc1ccc2c(O)cc(S(=O)(=O)O)cc2c1)Nc1ccc2c(O)cc(S(=O)(=O)O)cc2c1, which relative cell viability is on record?
Answer: Its relative cell viability is 1.03 ± 0.016.

Question: Which relative cell viability does the source give for CCc1cc(/C(C)=N/OCc2ccc(C3CCCCC3)c(C(F)(F)F)c2)ccc1CN1CC(C(=O)O)C1 [BAF312 (Siponimod)] here?
Answer: The relative cell viability was 1.1 ± 0.07.

Question: Cc1cc(CS(=O)(=O)c2ccccc2)cc(OCc2ccc(CN3CCC[C@@H]3CO)cc2)c1 was tested. Which relative cell viability did it give?
Answer: Its relative cell viability is 1.08 ± 0.027.

Question: How did the relative cell viability turn out when O=C(O)c1ccc(N2C(=O)C(=Cc3ccc(-c4ccc([N+](=O)[O-])cc4)o3)C=C2c2ccccc2)cc1 was run?
Answer: Its relative cell viability is 1.0435 ± 0.00023.

Question: With COc1cc2c(cc1OC)CN(CCc1ccc(NC(=O)c3cccc4c(=O)c5cccc(OC)c5[nH]c34)cc1)CC2 as the compound, how does the relative cell viability read?
Answer: Its relative cell viability is 1.03 ± 0.056.

Question: CCN(CCCc1ccccc1)CCCc1ccccc1 [Alverine Citrate] was tested. Which relative cell viability did it give?
Answer: The relative cell viability was 1.11 ± 0.059.

Question: With CN(C)CCN1C(=O)c2cccc3cc(N)cc(c23)C1=O [Amonafide] as the compound, how does the relative cell viability read?
Answer: Its relative cell viability is 1.07 ± 0.07.

Question: Which relative cell viability does the source give for CCOc1ccc(Cc2cc([C@@H]3O[C@H](CO)[C@@H](O)[C@H](O)[C@H]3O)ccc2Cl)cc1 [Dapagliflozin] here?
Answer: The relative cell viability was 0.8703 ± 0.0012.

Question: For O[C@@H]1CO[C@H]2[C@@H]1OC[C@@H]2O [Isosorbide], which relative cell viability is on record?
Answer: Its relative cell viability is 0.884 ± 0.062.
